# Experimental data published in the supplement of paper PMC8728848.
# The list shows a part of the results.
# How the values were obtained:
# Experiment in all cases: glycan array binding signal (z-score within array); higher = stronger binding
# Settings in all cases: glycan notation: IUPAC condensed, linker removed
# GlcNAc(b1-3)Gal(b1-4)Glc = target: GlcNAc(b1-3)Gal(b1-4)Glc
# Procedure, shortened: (§1)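 Columns mapping to the same glycan were averaged after glycan names were converted to IUPAC-condensed notation. The data come from 3228 arrays in the Consortium for Functional Glycomics database, limited to those with an available protein sequence. Binding is reported as a within-array Z-score averaged across arrays of one protein sequence and across linkers.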
# [1] = target: GlcNAc(b1-3)Gal(b1-4)GlcNAc
# Procedure, shortened: as §1
# [2] = target: GlcNAc(b1-3)Gal(b1-4)GlcNAc(b1-2)Man(a1-3)[GlcNAc(b1-3)Gal(b1-4)GlcNAc(b1-2)Man(a1-6)]Man(b1-4)GlcNAc(b1-4)GlcNAc
# Procedure, shortened: as §1
# [3] = target: GlcNAc(b1-3)Gal(b1-4)GlcNAc(b1-2)Man(a1-3)[GlcNAc(b1-3)Gal(b1-4)GlcNAc(b1-2)Man(a1-6)]Man(b1-4)GlcNAc(b1-4)[Fuc(a1-6)]GlcNAc
# Procedure, shortened: as §1
# [4] = target: GlcNAc(b1-3)Gal(b1-4)GlcNAc(b1-2)[GlcNAc(b1-3)Gal(b1-4)GlcNAc(b1-6)]Man(a1-6)[GlcNAc(b1-3)Gal(b1-4)GlcNAc(b1-2)Man(a1-3)]Man(b1-4)GlcNAc(b1-4)GlcNAc
# Procedure, shortened: as §1
# [5] = target: GlcNAc(b1-3)Gal(b1-4)GlcNAc(b1-3)Gal(b1-4)GlcNAc
# Procedure, shortened: as §1
# [6] = target: GlcNAc(b1-3)Gal(b1-4)GlcNAc(b1-3)Gal(b1-4)GlcNAc(b1-2)Man(a1-3)[GlcNAc(b1-3)Gal(b1-4)GlcNAc(b1-3)Gal(b1-4)GlcNAc(b1-2)Man(a1-6)]Man(b1-4)GlcNAc(b1-4)GlcNAc
# Procedure, shortened: as §1
# [7] = target: GlcNAc(b1-3)Gal(b1-4)GlcNAc(b1-3)Gal(b1-4)GlcNAc(b1-2)Man(a1-3)[GlcNAc(b1-3)Gal(b1-4)GlcNAc(b1-3)Gal(b1-4)GlcNAc(b1-2)Man(a1-6)]Man(b1-4)GlcNAc(b1-4)[Fuc(a1-6)]GlcNAc
# Procedure, shortened: as §1
# [8] = target: GlcNAc(b1-3)Gal(b1-4)GlcNAc(b1-3)Gal(b1-4)GlcNAc(b1-2)[GlcNAc(b1-3)Gal(b1-4)GlcNAc(b1-3)Gal(b1-4)GlcNAc(b1-6)]Man(a1-6)[GlcNAc(b1-3)Gal(b1-4)GlcNAc(b1-3)Gal(b1-4)GlcNAc(b1-2)Man(a1-3)]Man(b1-4)GlcNAc(b1-4)[Fuc(a1-6)]GlcNAc
# Procedure, shortened: as §1
# [9] = target: GlcNAc(b1-3)Gal(b1-4)GlcNAc(b1-3)Gal(b1-4)GlcNAc(b1-3)Gal(b1-4)GlcNAc(b1-2)Man(a1-3)[GlcNAc(b1-3)Gal(b1-4)GlcNAc(b1-3)Gal(b1-4)GlcNAc(b1-3)Gal(b1-4)GlcNAc(b1-2)Man(a1-6)]Man(b1-4)GlcNAc(b1-4)GlcNAc
# Procedure, shortened: as §1
# [10] = target: GlcNAc(b1-3)Gal(b1-4)GlcNAc(b1-3)Gal(b1-4)GlcNAc(b1-3)Gal(b1-4)GlcNAc(b1-2)Man(a1-3)[GlcNAc(b1-3)Gal(b1-4)GlcNAc(b1-3)Gal(b1-4)GlcNAc(b1-3)Gal(b1-4)GlcNAc(b1-2)Man(a1-6)]Man(b1-4)GlcNAc(b1-4)[Fuc(a1-6)]GlcNAc
# Procedure, shortened: as §1
# [11] = target: GlcNAc(b1-3)Gal(b1-4)GlcNAc(b1-3)Gal(b1-4)GlcNAc(b1-3)Gal(b1-4)GlcNAc(b1-2)[GlcNAc(b1-3)Gal(b1-4)GlcNAc(b1-3)Gal(b1-4)GlcNAc(b1-3)Gal(b1-4)GlcNAc(b1-6)]Man(a1-6)[GlcNAc(b1-3)Gal(b1-4)GlcNAc(b1-3)Gal(b1-4)GlcNAc(b1-3)Gal(b1-4)GlcNAc(b1-2)Man(a1-3)]Man(b1-4)GlcNAc(b1-4)[Fuc(a1-6)]GlcNAc
# Procedure, shortened: as §1
# [12] = target: GlcNAc(b1-3)Gal(b1-4)GlcNAc(b1-3)Gal(b1-4)GlcNAc(b1-3)Gal(b1-4)GlcNAc(b1-3)Gal(b1-4)GlcNAc(b1-2)Man(a1-3)[GlcNAc(b1-3)Gal(b1-4)GlcNAc(b1-3)Gal(b1-4)GlcNAc(b1-3)Gal(b1-4)GlcNAc(b1-3)Gal(b1-4)GlcNAc(b1-2)Man(a1-6)]Man(b1-4)GlcNAc(b1-4)GlcNAc
# Procedure, shortened: as §1
# [13] = target: GlcNAc(b1-3)Gal(b1-4)GlcNAc(b1-3)Gal(b1-4)GlcNAc(b1-3)Gal(b1-4)GlcNAc(b1-3)Gal(b1-4)GlcNAc(b1-2)Man(a1-3)[GlcNAc(b1-3)Gal(b1-4)GlcNAc(b1-3)Gal(b1-4)GlcNAc(b1-3)Gal(b1-4)GlcNAc(b1-3)Gal(b1-4)GlcNAc(b1-2)Man(a1-6)]Man(b1-4)GlcNAc(b1-4)[Fuc(a1-6)]GlcNAc
# Procedure, shortened: as §1
# [14] = target: GlcNAc(b1-3)Gal(b1-4)GlcNAc(b1-3)Gal(b1-4)GlcNAc(b1-3)Gal(b1-4)GlcNAc(b1-3)Gal(b1-4)GlcNAc(b1-2)[GlcNAc(b1-3)Gal(b1-4)GlcNAc(b1-3)Gal(b1-4)GlcNAc(b1-3)Gal(b1-4)GlcNAc(b1-3)Gal(b1-4)GlcNAc(b1-6)]Man(a1-6)[GlcNAc(b1-3)Gal(b1-4)GlcNAc(b1-3)Gal(b1-4)GlcNAc(b1-3)Gal(b1-4)GlcNAc(b1-3)Gal(b1-4)GlcNAc(b1-2)Man(a1-3)]Man(b1-4)GlcNAc(b1-4)[Fuc(a1-6)]GlcNAc
# Procedure, shortened: as §1
# [15] = target: GlcNAc(b1-3)Gal(b1-4)GlcNAc(b1-3)Gal(b1-4)GlcNAc(b1-3)GalNAc
# Procedure, shortened: as §1
# [16] = target: GlcNAc(b1-3)Gal(b1-4)GlcNAc(b1-3)GalNAc
# Procedure, shortened: as §1
# [17] = target: GlcNAc(b1-3)Gal(b1-4)GlcNAc(b1-3)[GlcNAc(b1-3)Gal(b1-4)GlcNAc(b1-3)]GalNAc
# Procedure, shortened: as §1
# [18] = target: GlcNAc(b1-3)Gal(b1-4)GlcNAc(b1-6)[Gal(b1-3)]GalNAc
# Procedure, shortened: as §1
# [19] = target: GlcNAc(b1-3)Gal(b1-4)GlcNAc(b1-6)[GlcNAc(b1-3)Gal(b1-3)]GalNAc
# Procedure, shortened: as §1
# [20] = target: GlcNAc(b1-3)Gal(b1-4)GlcNAc(b1-6)[GlcNAc(b1-3)]Gal(b1-4)GlcNAc
# Procedure, shortened: as §1
# GlcNAc(b1-3)GalNAc = target: GlcNAc(b1-3)GalNAc
# Procedure, shortened: as §1
binder,measurement,setting,value
rCnSL-A (Clitocybe nebularis) (protein) VNPNLPGPNDVFVGFRGTNNIVGAIYEKDGIKDTPLNNGADAEMGPGSYITDGLFTARIFASGSAGNNPGTTATVCKIYASGVQWRGAPKGYIPVAYFGNGPTAEQRRQTYLRTLGLPGTAIRFGNLNTNPGQGPTAPRQMVVPPGPLRSLLKASCFPAADTRLPQTLHYFEKRVDWNIITAADSQTWGH,glycan array binding signal (z-score),GlcNAc(b1-3)Gal(b1-4)Glc,-0.241
same,glycan array binding signal (z-score),[1],-0.251
same,glycan array binding signal (z-score),[2],-0.183
same,glycan array binding signal (z-score),[3],-0.206
same,glycan array binding signal (z-score),[4],-0.221
same,glycan array binding signal (z-score),[5],-0.196
same,glycan array binding signal (z-score),[6],0.451
same,glycan array binding signal (z-score),[7],0.016
same,glycan array binding signal (z-score),[8],-0.296
same,glycan array binding signal (z-score),[9],-0.315
same,glycan array binding signal (z-score),[10],0.045
same,glycan array binding signal (z-score),[11],-0.268
same,glycan array binding signal (z-score),[12],-0.218
same,glycan array binding signal (z-score),[13],-0.06
same,glycan array binding signal (z-score),[14],-0.215
same,glycan array binding signal (z-score),[15],-0.219
same,glycan array binding signal (z-score),[16],-0.314
same,glycan array binding signal (z-score),[17],-0.188
same,glycan array binding signal (z-score),[18],-0.232
same,glycan array binding signal (z-score),[19],-0.231
same,glycan array binding signal (z-score),[20],-0.298
same,glycan array binding signal (z-score),GlcNAc(b1-3)GalNAc,-0.24
